Reference: PubChem BioAssay AID2675 (National Center for Advancing Translational Sciences (NCATS), 2010)
Values joined by “and” are separate entries in the source; they are usually repeats but may differ in a detail not shown here. Equal entries are not always repeated. In all, about 280,000 compounds went through this assay and about 100 (0.036%) were called active. This list was built around the results that the source calls inconclusive (neither active nor inactive); the mix of calls is not that of the screen. The call rests on the fitted dose curve; in most records, active means well fitted inhibition curve with a large enough effect in the signal ratio, with a control signal flat (not every such curve was filed as active); inconclusive means small, poorly fitted or top-dose-only effect, or effect the other way, or a change in a side signal; inactive means no such curve, though single readings can be large or run the other way; the % refers to the signal ratio. A potency beside an inconclusive call is a rough fit, not a confirmed value. A note “side channel” means that the fit belongs to a control or component signal, not to the main read-out.

Molecular target: Muscleblind-like protein 1 (Homo sapiens) (UniProt Q9NR56)
Chain of UniProt Q9NR56 (Q9NR56 whole entry, looked up): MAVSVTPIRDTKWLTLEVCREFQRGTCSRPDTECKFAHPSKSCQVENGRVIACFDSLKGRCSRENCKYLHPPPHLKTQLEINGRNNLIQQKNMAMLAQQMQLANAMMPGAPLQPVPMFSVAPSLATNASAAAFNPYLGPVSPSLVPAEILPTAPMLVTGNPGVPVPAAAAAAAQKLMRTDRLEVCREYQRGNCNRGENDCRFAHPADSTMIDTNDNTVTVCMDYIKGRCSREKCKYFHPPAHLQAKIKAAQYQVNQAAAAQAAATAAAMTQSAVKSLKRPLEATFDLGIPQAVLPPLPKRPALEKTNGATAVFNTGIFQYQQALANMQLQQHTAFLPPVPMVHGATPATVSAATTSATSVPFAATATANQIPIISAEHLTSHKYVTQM
Assay: qHTS Assay for Inhibitors of MBNL1-poly(CUG) RNA binding
Details: TR-FRET MBNL1-His/biotin-(CUG)12 binding, 665/545 ratio; activity change, negative = inhibition: at 57.5 µM (top of the series)
Method in brief: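 TR-FRET readout: Ex 340 nm, 665/545 nm emission ratio, normalized to buffer-only (basal) and MBNL1-(CUG)12 controls. Complex of MBNL1-His with Biotin-(CUG)12, compounds 92 nM–58 uM, incubated 60 min at room temperature.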
On the % scale 0 is the no-effect control and ±100 the full control effect; potency means the concentration at half of the fitted maximal effect; tags describe the fitted curve by direction and shape or compound fluorescence and quenching.

| SMILES | Potency | activity change, negative = inhibition |
| --- | --- | --- |
| Cc1ccc2nc(N(CCN(C)C)C(=O)c3cc(Cl)sc3Cl)sc2c1 | inconclusive: 39.8 µM [fluorescent, side channel, partial curve] | – |
| CC(OC(=O)c1cc(Cl)ccc1[N+](=O)[O-])C(=O)NC(C)c1ccc(F)cc1 (stereo not drawn) | inconclusive: 25.1 µM [quencher, side channel, single point] | – |
| COc1cc2c(cc1OC)C(C)N(C(=O)c1cc3c(=O)oc4ccc(C)cc4c3s1)CC2 (stereo not drawn) | – | inactive: 13.6% |
| CN(C)S(=O)(=O)N1CCN(c2ccc([N+](=O)[O-])cc2)CC1 | inconclusive: 15.8 µM [quencher, side channel, partial curve] | – |
| CN1C(=O)/C(=C/c2cn(CC(=O)N3CCCCC3)c3ccccc23)NC1=S | inconclusive: 8.91 µM [quencher, side channel, partial curve] | – |
| O=C(N/N=C/c1cc(Br)c(O)c(Br)c1)c1cccc(C(F)(F)F)c1 | inconclusive: 1.78 µM [quencher, side channel, partial curve] | – |
| CN1C(=O)c2ccc(C(=O)NCc3ccccn3)cc2C1=O | inconclusive: 15.8 µM [quencher, side channel, partial curve] | – |
| COc1cc(/C=N\NC(=O)c2ccc(-c3ccccc3)cc2)cc(OC)c1O | inconclusive: 25.1 µM [quencher, side channel, single point] | – |
| Cc1ccc(Cl)cc1-c1ccc(/C=N/n2cnnc2)o1 | inconclusive: 10 µM [quencher, side channel, partial curve] | – |
| COc1ccc(/C=N/NC(=O)C(=O)NCc2cccnc2)cc1 | inconclusive: 17.8 µM [quencher, side channel, single point] | – |
| N#Cc1cnn2ccc(-c3cc(N4CCOCC4)ccc3[N+](=O)[O-])nc12 | inconclusive: 15.8 µM [quencher, side channel, partial curve] | – |
| CC(=O)c1cccc(NC(=O)Nc2cccnc2)c1 | active: 25.1 µM | – |
| COc1cc([N+](=O)[O-])ccc1NC(=O)Cc1ccc(F)cc1 | inconclusive: 5.62 µM [activator, single point] | – |
| Cc1cc([N+](=O)[O-])ccc1NCc1ccccc1 | inconclusive: 28.2 µM [quencher, side channel, single point] | – |
| O=C(C1CC1)N1CCc2cc(S(=O)(=O)N(CCO)Cc3ccccc3)ccc21 | inconclusive: 1.41 µM [quencher, side channel, full curve] | – |
| Cn1cc(/C=C(\NC(=O)c2ccccc2Cl)C(=O)NCCCn2ccnc2)c2ccccc21 | inconclusive: 15.8 µM [quencher, side channel, partial curve] | – |
| Cc1ccc(C2=NN(C(=O)C3CCCO3)C(c3ccco3)C2)cc1 (stereo not drawn) | inconclusive: 0.631 µM [fluorescent, side channel, single point] | – |
| NC(=O)c1c(NC(=O)CCCC(=O)O)sc2c1CCCCCC2 | inconclusive: 3.55 µM [fluorescent, side channel, partial curve, poor fit] | – |
| Cc1cccc(/C=C/C(=O)c2cc(Br)ccc(=O)c2O)c1 | – | inactive: 10.3% |
| CCCCN1CN(S(=O)(=O)c2cccs2)c2nc3ccccc3nc21 | inconclusive: 12.6 µM [quencher, side channel, partial curve] | – |

| SMILES | Potency | activity change, negative = inhibition |
| --- | --- | --- |
| Cc1nn(C(=O)c2ccc([N+](=O)[O-])cc2)c(C)c1Br | inconclusive: 17.8 µM [quencher, side channel, partial curve] | – |
| Cn1cnnc1Sc1ccc(C(=O)NCCC(c2ccccc2)c2ccccc2)cc1[N+](=O)[O-] | inconclusive: 10 µM [quencher, side channel, partial curve] | – |
| O=C1c2ccccc2C(=O)C1c1ccncc1 | inconclusive: 25.1 µM [quencher, side channel, partial curve] | – |
| COc1cc(/C=N/NC(=O)c2ccncc2)ccc1O | inconclusive: 11.2 µM [quencher, side channel, full curve, poor fit] and inconclusive: 35.5 µM [quencher, side channel, partial curve] | – |
| COc1ccc(OC)c2c(N3CC(C)OC(C)C3)cc(C(F)(F)F)nc12 (stereo not drawn) | – | inactive: 3.57% |
| Cc1ccc(C)c(S(=O)(=O)NC(CC(C)C)C(=O)O)c1 (stereo not drawn) | inconclusive: 79.4 µM [inhibitor, single point] | – |
| O=[N+]([O-])c1nn(-c2ccccc2)[n+]([O-])c1N1CCN(c2ccccc2F)CC1 | inconclusive: 14.1 µM [quencher, side channel, partial curve] | – |
| CC1=CC(C)(C)NC(=S)N1c1ccc(C)cc1 | inconclusive: 3.16 µM [quencher, side channel, single point] | – |
| O=C(N/N=C\C=C\c1ccc(Br)cc1)c1ccc2c(c1)OCO2 | – | inactive: -1.15% |
| COc1ccc(C(=O)N/N=C/c2cc3ccccc3[nH]c2=S)cc1 | inconclusive: 15.8 µM [quencher, side channel, partial curve] | – |
| Clc1ccc(CN2CCN(c3ncccn3)CC2)cc1 | – | inactive: -3.88% |
| C(=C\c1ccccn1)/c1ccncc1 | inconclusive: 5.62 µM [quencher, side channel, partial curve] | – |
| CCCOP(=O)(c1ccccc1)c1ccccc1 | inconclusive: 15.8 µM [fluorescent, side channel, partial curve] | – |
| CCOC(=O)N/N=C/C(Cl)=C/c1ccccc1 | inconclusive: 17.8 µM [quencher, side channel, single point] | – |
| CCOc1ccc(N2C(=O)S/C(=C\c3cccn3C)C2=O)cc1 | – | inactive: 29.9% |
| O=C(Nc1ccccc1[N+](=O)[O-])C1(c2ccccc2)CCOCC1 | inconclusive: 25.1 µM [quencher, side channel, partial curve] | – |
| O=C(c1cc2c(s1)-c1ccccc1S(=O)(=O)C2)N1CCCC1 | inconclusive: 25.1 µM [quencher, side channel, single point] | – |
| O=C(COc1cccnc1[N+](=O)[O-])NCc1ccco1 | inconclusive: 20 µM [quencher, side channel, partial curve] | – |
| CN1C=CC=C/C1=C1\SC(=S)N(c2ccccc2)C1=O | inconclusive: 17.8 µM [quencher, side channel, partial curve] | – |
| O=Cc1ccc2noc(-c3ccc(Cl)cc3)c2c1 | inconclusive: 6.31 µM [quencher, side channel, partial curve] | – |

| SMILES | Potency | activity change, negative = inhibition |
| --- | --- | --- |
| NC[C@@H]1O[C@H](C23CC4CC(CC(C4)C2)C3)Cc2c1ccc(O)c2O | inconclusive: 39.8 µM [fluorescent, side channel, single point] | – |
| O=c1nc(N/N=C/c2ccccn2)cn[nH]1 | inconclusive: 20 µM [quencher, side channel, partial curve] | – |
| Cc1cccc(N2CCN(C(=O)CCC(=O)N3CC(C)Oc4ccccc43)CC2)c1C (stereo not drawn) | – | inactive: 0.777% |
| Cc1nn(C)c(Cl)c1S(=O)(=O)N[C@@H](c1ccccc1)[C@]1(C)C[C@H]1[C@@H](C)C(=O)Nc1ccc2ccccc2c1 | – | inactive: 18.7% |
| CCOc1cc(C=C(C#N)C#N)ccc1Oc1ccc([N+](=O)[O-])cn1 | inconclusive: 20 µM [quencher, side channel, partial curve] | – |
| COc1ccc(-n2nc([N+](=O)[O-])c(=NCCC3=CCCCC3)n2O)cc1 | inconclusive: 14.1 µM [quencher, side channel, partial curve] | – |
| CN(C)NC(=S)NC(=O)C12CC3CC(CC(C3)C1)C2 | – | inactive: -5.22% |
| Cc1cc(=O)oc(C)c1C(=O)OCC(=O)c1ccc2ccccc2c1 | inconclusive: 11.2 µM [quencher, side channel, partial curve] | – |
| CC(C)(CN=C1NS(=O)(=O)c2ccccc21)CNC(=O)CN1C(=O)c2ccccc2C1=O | inconclusive: 7.08 µM [quencher, side channel, partial curve] | – |
| Cc1ccc2[nH]c(=O)c(CN(CCCO)S(=O)(=O)c3c(C)ccc4nsnc34)cc2c1 | inconclusive: 3.16 µM [quencher, side channel, full curve, poor fit] | – |
| CC(=O)N1Cc2cc([N+](=O)[O-])ccc2Oc2ccccc21 | inconclusive: 17.8 µM [quencher, partial curve] | – |
| CCOC(=O)c1c(S(=O)(=O)NCC(=O)Nc2ccc(F)cc2)c(C)n(C)c1C | – | inactive: -4.44% |
| COc1ccc(Cc2noc(-c3ccc([N+](=O)[O-])cc3)n2)cc1OC | inconclusive: 7.94 µM [quencher, side channel, partial curve] | – |
| CC(C)CN=Cc1c(O)c([N+](=O)[O-])cc2oc3c(c12)CCCC3 | inconclusive: 11.2 µM [quencher, side channel, partial curve] | – |
| CCO/C(C)=N/n1c2nc3ccccc3nc2c2c(=O)n(C3CCCC3)c(C)nc21 | inconclusive: 14.1 µM [quencher, side channel, partial curve] | – |
| Cn1c(SCC(=O)c2cc3ccccc3o2)nnc1-c1ccccc1 | inconclusive: 31.6 µM [quencher, side channel, single point] | – |
| O=C(N/N=C/c1ccc([N+](=O)[O-])o1)c1ccc(NS(=O)(=O)c2cccs2)cc1 | inconclusive: 12.6 µM [quencher, side channel, partial curve] | – |
| N#CCSc1nc2[nH]ncc2c(=O)n1-c1ccccc1Br | inconclusive: 15.8 µM [quencher, side channel, partial curve] | – |
